Screen size: about 150,000 compounds; about 540 (0.36%) showed an effect of 50% or more. Some of the results follow.

The assay has as its system Plasmodium falciparum. In words: Primary screen in NF54 nanoGlo assay, in single point, at 2uM, 72h; a lower Z score goes with more inhibition. Format: functional, Erythrocyte. The note with it: timepoint 72 hour.
One may read the % Inhibition as the change of the read-out against control, counted positive when it falls. Take `COc1nccnc1N1CCN(C)C[C@H](O)C1`: the “% Inhibition” value was -1% and the Z score turned out to be 0.2.
In the same order, the values of `CCOc1cc(CNC(=O)Cn2cnc3onc(C)c3c2=O)ccc1OC` are -4% and 0.55.
The matching figures for `O=C(Nc1onc2c1CCC2)c1ccc2ncsc2c1`: 0% and 0.01.
Consider `CC(=O)n1nc2c(c1C)[C@@H](c1ccc(Cl)cc1)c1c(nc(C)[nH]c1=O)O2`, for which the “% Inhibition” value is recorded as -5% and the Z score is given as 0.52.
The matching figures for `CN1C(=O)COc2cc(-c3noc(C(=O)NCc4ccccn4)n3)ccc21`: 4% and -0.45.
Turning to `Nc1cc(C(=O)NCC[C@H]2CCCOC2)n[nH]1`, the “% Inhibition” value is recorded as -13% and the Z score is on record as 2.39.
The matching figures for `COCCc1noc(CNC(=O)Cc2ccsc2)n1`: -11% and 1.28.
As for `CCN(CC)C(=O)[C@@H]1CCCN1C(=O)c1ccnc(N(C)C)c1`, the “% Inhibition” value was -18% and the Z score is on record as 2.85.
In the case of `CC(C)(C)OC(=O)NCC1(C(=O)NCC2CCC3(CC2)OCCO3)CCCC1`, the “% Inhibition” value is -2% and the Z score was 0.25.
In the same order, the values of `Cc1ccc(NC(=O)COc2nc(C)no2)cc1` are -5% and 0.72.
As to `Cc1cc(C)n(-c2ccc(=O)n(CC3CN(C(=O)c4ccc(F)cc4)C3)n2)n1`, the “% Inhibition” value is on record as -11% and the Z score was found to be 1.27.
As to `c1cc2c(cc1-c1csc(N3CCCC3)n1)OCO2`, the “% Inhibition” value is on record as 0% and the Z score is listed as 0.05.
In the same order, the values of `Cc1csc(CN(C)C(=O)N(Cc2cscn2)c2ccccc2)n1` are -6% and 0.74.
In the same order, the values of `O=C1CC(c2c(F)cccc2Cl)=NN1CCO` are -21% and 2.93.
In the same order, the values of `O=C(NC(c1cccs1)[C@H]1C[C@@H](O)C1)c1ccccc1N1CCCC1` (some centres not stated) are -10% and 0.93.
As to `CON(C)c1nc(C)nc(C)c1Br`, the “% Inhibition” value is -11% and the Z score is reported as 2.27.
The matching figures for `COC[C@@H]1CCC[C@@H]1NC(=O)CCC(=O)c1ccccc1`: -5% and 0.76.
For the compound `CC(C)c1cc(C(=O)N2CC[C@H](N3CCCCC3)C2)nc(N)n1`, the “% Inhibition” value is reported as 0% and the Z score turned out to be 0.05.
In the case of `O=C(CCn1cc(Cl)cn1)N1CC(c2cccnc2)C1`, the “% Inhibition” value was 6% and the Z score is given as -1.16.
The matching figures for `CCC(NC(=O)CCN1CCCCO1)[C@H]1C[C@@H](O)C1` (some centres not stated): -13% and 2.41.
On to `CCc1ncnc(NCCc2nc3c(s2)COCC3)c1F`, for which the “% Inhibition” value was -3% and the Z score came to 0.35.
In the same order, the values of `CCN1C[C@H](CN(C)C(=O)c2ccc(S(=O)(=O)NC3CC3)o2)Oc2ccccc21` are 7% and -1.04.
`CC1COC(c2cccc(Cl)c2)CN1c1nccn2cnnc12` (configuration not stated): the “% Inhibition” value turned out to be 1% and the Z score is reported as -0.13.
In the same order, the values of `Cc1ccc2c(c1)C(=O)NC1(CCN(C(=O)c3ccc4c(c3)OCO4)CC1)N2C` are -4% and 0.55.
In the same order, the values of `COc1ccc2cc1Oc1cccc(c1)CO[C@H]1CCN(C(=O)c3ccc(N4CCCC4=O)cc3)C[C@H]1NC(=O)CC2` are -22% and 2.79.
The matching figures for `Cc1coc(-c2cc(NC(=O)N3CC[C@](C)(C(=O)O)C3)ccc2C)n1`: -1% and 0.11.
Turning to `O=C(Cn1cccn1)N1CCC[C@H](CCc2ccccc2)C1`, the “% Inhibition” value is recorded as -11% and the Z score worked out at 0.97.
`Cc1cnc(C(=O)N(Cc2nnc(-c3ccccc3)o2)C(C)C)cn1`: the “% Inhibition” value is reported as -16% and the Z score stood at 1.37.
The matching figures for `O=C(NCCOCC(F)(F)F)N1CCCC2CCCC21` (configuration not stated): -12% and 1.88.
With `c1ccc(Cc2noc(CN3CCC4(CC3)C[C@@H]4c3nnc4n3CCCCC4)n2)cc1`, the “% Inhibition” value is given as -7% and the Z score is reported as 1.15.
The matching figures for `Cc1ccc2snc(C(=O)N3CCC[C@H]3c3ccn[nH]3)c2c1`: -3% and 0.42.
The matching figures for `O=C(Nc1nc2cc3c(cc2s1)OCCO3)c1ccc2ccccc2c1`: -14% and 2.75.
The matching figures for `COc1ccc(-c2cc3n(n2)CC(C)(C(=O)NC2CCCCCCC2)N(CC2CCCO2)C3=O)cc1` (configuration not stated): 2% and -0.25.
For `Cc1n[nH]c(=O)c(C(=O)N[C@H]2CCc3nccn3C2)c1C`, the “% Inhibition” value was -5% and the Z score was 0.8.
In the same order, the values of `O=S(=O)(Nc1cc(-c2ccoc2)no1)c1ccc(F)c(Cl)c1` are 1% and -0.15.
As for `O=C(Nc1cccnn1)c1cccc(S(=O)(=O)N2CCCCC2)c1`, the “% Inhibition” value is listed as -10% and the Z score is on record as 1.68.
As to `Cc1coc(C)c1C(=O)N1CCN([C@@H](C)C(=O)N2CCOCC2)CC1`, the “% Inhibition” value is recorded as 1% and the Z score was -0.11.
Turning to `Cc1ccc(CN(C)C(=O)[C@H]2CCc3nn(C)c(=O)n3C2)s1`, the “% Inhibition” value came to 0% and the Z score is 0.01.
For the compound `CC(C)NC(=O)c1cc2c(s1)N(CC1CC1)CCCC2`, the “% Inhibition” value was -4% and the Z score came out at 0.78.
In the same order, the values of `C[C@H](NCC1(N2CCCC2)CCOCC1)c1ncc(C(C)(C)C)o1` are 5% and -0.47.
With `CC(C)[C@H](NCc1cnn(C)c1)C(=O)OC(C)(C)C`, the “% Inhibition” value was -18% and the Z score amounted to 1.78.
The matching figures for `CCOc1ccncc1S(=O)(=O)N1Cc2ccccc2[C@@H]1C`: -11% and 0.96.
In the same order, the values of `Cc1ccc(C(=O)N2CCN(c3ncccn3)[C@H]3CS(=O)(=O)C[C@H]32)s1` are -2% and 0.31.
Consider `COC(=O)c1ccccc1CCC(=O)Nc1cnc(CO)cn1`, for which the “% Inhibition” value is 5% and the Z score is recorded as -0.98.
In the case of `Cc1ccc(-c2nn(C)c(=O)c3c2CCCC3)cc1S(=O)(=O)Nc1cccc(C)c1C`, the “% Inhibition” value is given as -8% and the Z score came to 1.21.
Consider `CCCN(Cc1c(C)nn(-c2ccccc2)c1Oc1ccc(F)cc1F)C(=O)C1CCC1`, for which the “% Inhibition” value is on record as 1% and the Z score is listed as -0.11.
For `Cc1c(NCc2cccc(C#N)c2)cnn1[C@H]1CCOC1`, the “% Inhibition” value turned out to be 18% and the Z score is recorded as -2.09.
With `O=C(Cc1ccc(NS(=O)(=O)c2cccs2)cc1)N1CCC1`, the “% Inhibition” value was found to be 9% and the Z score is given as -1.13.
In the same order, the values of `CN(Cc1ccncc1Cl)Cc1nccn1CC(F)(F)F` are -3% and 0.28.
With `O=C(NCc1ccsc1)c1ccc(S(=O)(=O)N2CCOCC2)cc1`, the “% Inhibition” value is reported as -16% and the Z score was determined as 2.29.
For `O=C(Cc1ccccc1)N1CCN(C(=O)Nc2ccon2)CC1`, the “% Inhibition” value is given as -1% and the Z score was found to be 0.09.
For `O=C(Nc1nnc2ccccn12)c1ccc2c(c1)OCO2`, the “% Inhibition” value is given as -9% and the Z score is given as 0.99.
In the case of `Cc1[nH]c2c(F)cc(F)cc2c1CCNC(=O)c1cnco1`, the “% Inhibition” value is reported as -10% and the Z score is on record as 1.9.
In the same order, the values of `Cn1c(=O)c2c(O)c3ncnnc3nc2n(C)c1=O` are -34% and 4.02.
For `O=C(NCc1nccnc1-c1ccoc1)c1ccc2c(c1)OCO2`, the “% Inhibition” value is recorded as -4% and the Z score is listed as 0.59.
Regarding `CCCc1c(C(=O)N2CC(=O)C2)cnn1C1CCCC1`, the “% Inhibition” value is listed as -5% and the Z score is 0.65.
In the same order, the values of `Cc1c[nH]nc1CN1CCCC[C@H]1c1nccs1` are 10% and -1.27.
In the same order, the values of `CN(Cc1ccc2nonc2c1)C(=O)COC[C@H]1CCCCO1` are -4% and 0.49.
In the same order, the values of `O=C(O)CN(C(=O)c1ccnn1CC1CCC1)C1CCCCC1` are -3% and 0.36.
For `Cc1ccc(C(=O)N[C@H](CO)CC(C)(C)C)c(F)c1`, the “% Inhibition” value is -4% and the Z score stood at 0.33.
In the same order, the values of `CC(C)N(C)C(=O)[C@@H]1CC(=O)c2sc(NC(=O)C3CCC3)nc2C1` are -1% and 0.21.
For the compound `COc1ccnc(N[C@@H]2c3ccccc3C[C@@H]2O)n1`, the “% Inhibition” value was 13% and the Z score is given as -1.68.
In the same order, the values of `C[C@H](Nc1cnc2ccccc2n1)c1nncn1C` are -12% and 1.26.
Consider `N#Cc1cccnc1N[C@H]1CC(=O)N(CC2CCCCC2)C1`, for which the “% Inhibition” value was -10% and the Z score came out at 1.53.
For `CC[C@H](NC(=O)Nc1cccc(Cl)c1)c1nnc2n1CCCCC2`, the “% Inhibition” value worked out at 14% and the Z score is -1.87.
In the same order, the values of `O=C(NCCS(=O)(=O)NC(c1ccccc1)c1ccccc1)c1ccccc1` are 0% and 0.03.
As for `C[C@]1(CNC(=O)Cc2cn3cc(F)ccc3n2)CCCCO1`, the “% Inhibition” value was -5% and the Z score is reported as 0.56.
For the compound `Cn1cc(Br)c2nc[nH]c(=O)c21`, the “% Inhibition” value is recorded as -14% and the Z score was determined as 1.39.
In the case of `C[C@@H](C(=O)Nc1nncs1)N(C)Cc1noc(C2CCCC2)n1`, the “% Inhibition” value is 4% and the Z score is reported as -0.77.
As to `O=C(Nc1onc2c1CCC2)c1ccc2ccccc2c1`, the “% Inhibition” value came out at 76% and the Z score is -8.19.
On to `CN1CCC[C@H](CN(C)Cc2ccc(Cl)o2)C1`, for which the “% Inhibition” value was 8% and the Z score is listed as -1.09.
Consider `CC(O)C1CCCCN1S(=O)(=O)c1cnc2ccc(F)cc2c1` (configuration not stated), for which the “% Inhibition” value is given as -3% and the Z score turned out to be 0.48.
In the same order, the values of `Cn1ccc(NC(=O)N[C@H]2CCN(CC(F)F)C2)cc1=O` are -14% and 2.47.
In the same order, the values of `CN(C)c1nc([C@H]2C[C@@H](Nc3nc(N)nc4c3CCC4)C2)cc(=O)[nH]1` are -4% and 0.39.
In the same order, the values of `Cc1cccc(CC(=O)NC2CC3CCC(C2)N3S(C)(=O)=O)c1` (configuration not stated) are 5% and -0.82.
With `CC[C@H](Nc1ccc(OC(C)C)c(C)c1)C(N)=O`, the “% Inhibition” value turned out to be 11% and the Z score was -1.6.
On to `Cn1cccc1CN[C@H]1[C@H](O)[C@@H](N2CCN(c3ccccc3)CC2)[C@@H]2OC[C@H]1O2`, for which the “% Inhibition” value is recorded as -4% and the Z score turned out to be 0.55.
For `C[C@@H](C(=O)N(C)c1ccc(Br)cc1Cl)n1cncn1`, the “% Inhibition” value worked out at 5% and the Z score is given as -0.67.
In the same order, the values of `COc1ccccc1C(C)(C)c1noc([C@@]23CCCC[C@@H]2NCC3)n1` are -2% and 0.35.
The matching figures for `O=C(CN1CCC(c2nnc(C(F)(F)F)o2)CC1)N1CCC(Cc2ccccc2)CC1`: -8% and 0.93.
The matching figures for `O=S1(=O)C[C@H](NC2CCCC2)[C@@H](S(=O)(=O)c2cccs2)C1`: 1% and -0.1.
For `CCn1ccnc1[C@H]1CCCN(C(=O)c2cccnc2O)C1`, the “% Inhibition” value is on record as -16% and the Z score worked out at 1.44.
In the same order, the values of `C[C@@H](O)CN(C)C(=O)NC[C@H]1CC[C@H](c2ccccc2)O1` are 2% and -0.29.
As for `O=C(Nc1cccnc1)c1cc2c(s1)CCCCC2`, the “% Inhibition” value was -9% and the Z score worked out at 1.24.
In the same order, the values of `C[C@H](OC(=O)C1CCC1)C(=O)Nc1ncnc2[nH]cnc12` are -12% and 1.57.
Regarding `O=C(NCC1(CO)COC1)c1ccc(Cl)c(Cl)c1`, the “% Inhibition” value amounted to 4% and the Z score is reported as -0.77.

Values taken from ChEMBL document CHEMBL4888484, “Replenishing the malaria drug discovery pipeline: Screening and hit evaluation of the MMV Hit Generation Library 1 (HGL1) against asexual blood stage Plasmodium falciparum ,using a nano luciferase reporter read-out” (2022).
